In the supplement of paper PMC12217912:
Some of the results follow. Sequences were assembled here from the parent chain. Inactive controls read about 0.05.

B1: TEV protease; numbered along this chain (parent)
chain: MGESLFKGPRDYNPISSSICHLTNESDGHTTSLYGIGFGPFIITNKHLFRRNNGTLVVQSLHGVFKVKDTTTLQQHLVDGRDMIIIRMPKDFPPFPQKLKFREPQREERICLVTTNFQTKSMSSMVSDTSCTFPSGDGIFWKHWIQTKDGQCGSPLVSTRDGFIVGIHSASNFTNTNNYFTSVPKNFMELLTNQEAQQWVSGWRLNADSVLWGGHKVFMVKPEEPFQPVKEATQL

Variants of: B1
Experiment: raw area under fraction-flipped curve 0-4 h after induction (AUC4h, not background-subtracted), DNA-recorder readout of cleavage of the substrate (dimensionless); higher = more cleavage of the substrate by the protease variant
Conditions: temperature: 34 °C; time window: 0-4 h after rhamnose induction
Method: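 In vivo DNA recorder in E. coli TOP10(DE3) ΔrhaA at 34 °C. Each TEVp single-site mutant (parent TEVp 0) is paired with a single-site variant of the 7-mer TEVs (canonical ENLYFQ|S). The substrate sits between flexible linkers in a Bxb1-sfGFP-TEVs-SsrA fusion, so cleavage stabilises Bxb1 and speeds flipping of a recombination array, read by NGS. The value is the raw area under the fraction-flipped curve over 0-4 h after rhamnose induction (AUC4h), with ≥20 reads per time point. It is not background-subtracted; inactive controls average about 0.047.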
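Also: Bxb1 expression induced with 0.2% (w/v) L-rhamnose at OD600 near 0.5, cultures sampled hourly, flipped fraction per protease–substrate barcode pair counted by paired-end Illumina sequencing.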

Variant	area with substrate ENLYAQS	area with substrate ENLYDQS	area with substrate ENLYEQS	area with substrate ENLYGQS	area with substrate ENLYHQS	area with substrate ENLYIQS	area with substrate ENLYKQS	area with substrate ENLYMQS	area with substrate ENLYNQS	area with substrate ENLYPQS	area with substrate ENLYQQS	area with substrate ENLYRQS	area with substrate ENLYSQS	area with substrate ENLYWQS	area with substrate ENLYCQS	area with substrate ENLYLQS	area with substrate ENLYTQS	area with substrate ENLYVQS	area with substrate ENLYYQS
S16N	0.0715	0.0559	0.065	0.0642	0.0693	0.124	0.0575	0.0809	0.0695	0.0759	0.0648	0.0608	0.0706	0.0755	–	–	–	–	–
L48R	0.0555	0.0694	0.0715	0.056	0.0573	0.0596	0.0637	0.0753	0.0565	0.059	0.0599	0.0595	–	0.0696	0.0544	0.0573	0.064	0.0608	0.0651
L112Q	0.07	–	0.0696	0.0819	0.0627	0.0726	0.0634	0.0553	0.0681	0.0572	–	0.0543	0.0737	0.053	–	–	0.0542	0.0799	0.068
P184C	0.0567	–	0.0653	0.0674	–	0.105	0.0532	0.075	0.0721	0.0519	0.0732	0.067	–	0.0834	0.0981	–	0.0792	–	–
L112F	0.0836	0.0479	0.0672	0.063	0.0687	0.0907	0.071	0.075	0.0502	–	0.0659	0.0425	0.0888	0.0601	0.0736	–	0.0631	0.0836	–
E224N	0.0777	–	0.0638	0.0722	0.0707	0.071	0.0632	0.0918	0.06	–	0.0652	0.0583	0.06	0.062	0.092	–	0.0712	–	0.0756
R10K	0.0681	0.0642	0.071	0.0654	0.0727	0.109	0.0675	0.0778	0.0655	0.0647	0.0536	0.0792	0.0834	0.0902	–	0.0711	0.0662	0.0957	0.072
L48V	0.07	0.0613	0.0605	0.0553	0.0646	0.0748	0.0711	0.071	0.0629	0.0599	–	0.0717	0.0514	0.0768	0.0715	0.067	0.0583	0.0761	–
V220R	0.0735	0.0608	0.0723	0.069	0.0677	0.109	0.0269	0.077	0.0708	0.0752	0.0682	0.0603	0.0722	0.0974	–	–	–	–	0.0718
E25K	0.0693	0.0672	0.0668	0.0606	0.071	0.131	0.0565	0.0855	0.065	–	0.0587	0.0662	0.0678	0.0655	0.0604	–	0.0897	0.147	0.0658
M88Y	0.0487	0.0819	–	–	0.0651	0.0614	–	–	0.0472	0.0912	0.033	–	–	–	–	–	–	–	–
E224K	0.0773	–	0.084	0.0704	0.0667	0.0997	0.058	0.0907	0.0685	0.0729	–	0.0545	0.0742	0.0657	0.0873	–	–	0.0978	0.0543
A232W	0.0582	–	0.0803	0.066	0.0563	0.136	0.0741	0.0566	0.0526	0.059	–	0.0496	0.064	0.0751	–	–	0.095	0.101	–
N24Q	0.0697	0.0664	0.0576	0.0651	0.0641	0.108	–	0.0853	0.0772	0.0648	–	0.0455	0.0616	0.0902	–	–	–	0.0878	0.0641
I164A	0.0537	0.0514	0.0683	0.0701	0.0541	0.0694	0.0496	–	–	0.0588	–	0.0547	0.039	0.0594	–	–	0.0511	0.0632	–
R81N	0.0865	0.0539	0.0572	0.058	0.0566	0.0769	0.0662	–	0.0608	0.0669	0.0653	0.058	–	–	–	–	0.0632	0.0657	0.063
K216H	0.0622	–	0.0578	0.0662	0.0657	0.0835	0.0596	0.075	0.0619	0.0729	0.068	0.0534	0.145	–	–	–	–	0.108	0.0718
L56W	0.0509	0.0565	0.0513	0.0631	0.0577	0.0628	0.0517	0.0548	0.0828	0.0544	0.0693	0.0622	0.0653	0.05	–	–	–	0.0652	0.0541
L56I	0.0655	0.054	0.0643	0.0682	–	0.118	–	–	0.0677	0.0649	–	0.0501	–	0.0861	–	–	0.0833	0.125	0.0595
H168D	0.0712	0.0618	0.0559	0.0682	0.0709	0.0633	0.0615	0.0546	0.0664	0.0603	–	–	–	0.0479	0.0093	–	–	0.0576	–
R160N	0.0435	0.0513	0.0711	–	0.0684	0.0895	0.0726	0.0826	0.0696	0.0611	–	0.0641	0.0799	0.0919	0.111	–	–	–	0.0924
H168I	0.0542	0.061	0.0655	0.06	0.0733	0.0594	0.0369	0.0564	0.0549	0.0576	0.0525	0.0555	0.0515	0.0496	0.0466	0.117	–	0.0637	–
T176I	0.0479	0.0586	0.0613	0.0583	0.0793	0.0656	0.0609	0.0644	0.0572	0.0655	0.0513	0.0651	0.0595	0.0422	–	0.0487	–	0.0717	–
L112C	–	0.0711	0.0641	0.0676	–	–	–	0.0664	0.0509	0.0604	–	0.0644	–	–	0.116	–	–	0.0801	0.0584
